The list shows a part of the results. The full chains were built here from the parent and the listed change. Values near 0.05 are background.
B1: TEV protease; numbered along this chain (parent)
chain: MGESLFKGPRDYNPISSSICHLTNESDGHTTSLYGIGFGPFIITNKHLFRRNNGTLVVQSLHGVFKVKDTTTLQQHLVDGRDMIIIRMPKDFPPFPQKLKFREPQREERICLVTTNFQTKSMSSMVSDTSCTFPSGDGIFWKHWIQTKDGQCGSPLVSTRDGFIVGIHSASNFTNTNNYFTSVPKNFMELLTNQEAQQWVSGWRLNADSVLWGGHKVFMVKPEEPFQPVKEATQL

Variants of: B1
Experiment: raw area under fraction-flipped curve 0-4 h after induction (AUC4h, not background-subtracted), DNA-recorder readout of cleavage of the substrate (dimensionless); higher = more cleavage of the substrate by the protease variant
Conditions: temperature: 34 °C; time window: 0-4 h after rhamnose induction
Procedure: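 In vivo DNA recorder in E. coli TOP10(DE3) ΔrhaA at 34 °C. Each TEVp single-site mutant (parent TEVp 0) is paired with a single-site variant of the 7-mer TEVs (canonical ENLYFQ|S). The substrate sits between flexible linkers in a Bxb1-sfGFP-TEVs-SsrA fusion, so cleavage stabilises Bxb1 and speeds flipping of a recombination array, read by NGS. The value is the raw area under the fraction-flipped curve over 0-4 h after rhamnose induction (AUC4h), with ≥20 reads per time point. It is not background-subtracted; inactive controls average about 0.047.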
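Further: Bxb1 expression induced with 0.2% (w/v) L-rhamnose at OD600 near 0.5, cultures sampled hourly, flipped fraction per protease–substrate barcode pair counted by paired-end Illumina sequencing.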

Variant	area with substrate ENLYFQA	area with substrate ENLYFQC	area with substrate ENLYFQD	area with substrate ENLYFQE	area with substrate ENLYFQF	area with substrate ENLYFQG	area with substrate ENLYFQH	area with substrate ENLYFQI	area with substrate ENLYFQL	area with substrate ENLYFQM	area with substrate ENLYFQP	area with substrate ENLYFQQ	area with substrate ENLYFQR	area with substrate ENLYFQS	area with substrate ENLYFQT	area with substrate ENLYFQV	area with substrate ENLYFQW	area with substrate ENLYFQY	area with substrate ENLYFQK	area with substrate ENLYFQN
MGESLFKGPRDGNPISSSICHLTNESDGHTTSLYGIGFGPFIITNKHLFRRNNGTLVVQSLHGVFKVKDTTTLQQHLVDGRDMIIIRMPKDFPPFPQKLKFREPQREERICLVTTNFQTKSMSSMVSDTSCTFPSGDGIFWKHWIQTKDGQCGSPLVSTRDGFIVGIHSASNFTNTNNYFTSVPKNFMELLTNQEAQQWVSGWRLNADSVLWGGHKVFMVKPEEPFQPVKEATQL [Y12G]	0.0919	0.11	0.0619	0.0694	0.0765	0.096	0.087	0.0572	0.063	0.0817	0.0652	0.0811	0.0473	0.0971	0.0626	0.0622	0.0611	0.0791		
MGESLFKGPRDYNDISSSICHLTNESDGHTTSLYGIGFGPFIITNKHLFRRNNGTLVVQSLHGVFKVKDTTTLQQHLVDGRDMIIIRMPKDFPPFPQKLKFREPQREERICLVTTNFQTKSMSSMVSDTSCTFPSGDGIFWKHWIQTKDGQCGSPLVSTRDGFIVGIHSASNFTNTNNYFTSVPKNFMELLTNQEAQQWVSGWRLNADSVLWGGHKVFMVKPEEPFQPVKEATQL [P14D]	0.108	0.119	0.0715			0.0905	0.0516	0.0638	0.0786	0.0869		0.0694	0.0507	0.101	0.0626		0.081	0.0755	0.0434	0.0924
MGESLFKGPRDYNGISSSICHLTNESDGHTTSLYGIGFGPFIITNKHLFRRNNGTLVVQSLHGVFKVKDTTTLQQHLVDGRDMIIIRMPKDFPPFPQKLKFREPQREERICLVTTNFQTKSMSSMVSDTSCTFPSGDGIFWKHWIQTKDGQCGSPLVSTRDGFIVGIHSASNFTNTNNYFTSVPKNFMELLTNQEAQQWVSGWRLNADSVLWGGHKVFMVKPEEPFQPVKEATQL [P14G]	0.0941				0.07	0.0936	0.0816	0.0518	0.0435	0.0897	0.0649		0.0613	0.105	0.0777		0.0724	0.0763	0.0722	0.0934
MGESLFKGPRDYNNISSSICHLTNESDGHTTSLYGIGFGPFIITNKHLFRRNNGTLVVQSLHGVFKVKDTTTLQQHLVDGRDMIIIRMPKDFPPFPQKLKFREPQREERICLVTTNFQTKSMSSMVSDTSCTFPSGDGIFWKHWIQTKDGQCGSPLVSTRDGFIVGIHSASNFTNTNNYFTSVPKNFMELLTNQEAQQWVSGWRLNADSVLWGGHKVFMVKPEEPFQPVKEATQL [P14N]	0.0825	0.109		0.0608			0.0705	0.0554	0.0576	0.0827			0.0585	0.0885		0.0659	0.0663	0.0735	0.0595	
MGESLFKGPRDYNPISSEICHLTNESDGHTTSLYGIGFGPFIITNKHLFRRNNGTLVVQSLHGVFKVKDTTTLQQHLVDGRDMIIIRMPKDFPPFPQKLKFREPQREERICLVTTNFQTKSMSSMVSDTSCTFPSGDGIFWKHWIQTKDGQCGSPLVSTRDGFIVGIHSASNFTNTNNYFTSVPKNFMELLTNQEAQQWVSGWRLNADSVLWGGHKVFMVKPEEPFQPVKEATQL [S18E]	0.0863	0.15	0.0775			0.0708		0.0575	0.0617		0.0703		0.0506	0.106	0.0669	0.0585	0.0577			0.0747
MGESLFKGPRDYNPISSSMCHLTNESDGHTTSLYGIGFGPFIITNKHLFRRNNGTLVVQSLHGVFKVKDTTTLQQHLVDGRDMIIIRMPKDFPPFPQKLKFREPQREERICLVTTNFQTKSMSSMVSDTSCTFPSGDGIFWKHWIQTKDGQCGSPLVSTRDGFIVGIHSASNFTNTNNYFTSVPKNFMELLTNQEAQQWVSGWRLNADSVLWGGHKVFMVKPEEPFQPVKEATQL [I19M]	0.0912	0.11			0.0782	0.105	0.0978	0.0619	0.0578	0.0713	0.0682	0.0438	0.0589	0.107	0.0796	0.0686	0.0828	0.073	0.0697	0.078
MGESLFKGPRDYNPISSSNCHLTNESDGHTTSLYGIGFGPFIITNKHLFRRNNGTLVVQSLHGVFKVKDTTTLQQHLVDGRDMIIIRMPKDFPPFPQKLKFREPQREERICLVTTNFQTKSMSSMVSDTSCTFPSGDGIFWKHWIQTKDGQCGSPLVSTRDGFIVGIHSASNFTNTNNYFTSVPKNFMELLTNQEAQQWVSGWRLNADSVLWGGHKVFMVKPEEPFQPVKEATQL [I19N]	0.067	0.0634				0.0548	0.0363	0.0535		0.0805	0.0554		0.0513	0.0724	0.055		0.0577	0.0518	0.0493	0.0418
MGESLFKGPRDYNPISSSSCHLTNESDGHTTSLYGIGFGPFIITNKHLFRRNNGTLVVQSLHGVFKVKDTTTLQQHLVDGRDMIIIRMPKDFPPFPQKLKFREPQREERICLVTTNFQTKSMSSMVSDTSCTFPSGDGIFWKHWIQTKDGQCGSPLVSTRDGFIVGIHSASNFTNTNNYFTSVPKNFMELLTNQEAQQWVSGWRLNADSVLWGGHKVFMVKPEEPFQPVKEATQL [I19S]	0.0912										0.068		0.0598	0.0952			0.0953			0.074
MGESLFKGPRDYNPISSSIPHLTNESDGHTTSLYGIGFGPFIITNKHLFRRNNGTLVVQSLHGVFKVKDTTTLQQHLVDGRDMIIIRMPKDFPPFPQKLKFREPQREERICLVTTNFQTKSMSSMVSDTSCTFPSGDGIFWKHWIQTKDGQCGSPLVSTRDGFIVGIHSASNFTNTNNYFTSVPKNFMELLTNQEAQQWVSGWRLNADSVLWGGHKVFMVKPEEPFQPVKEATQL [C20P]	0.0464	0.0563	0.0485	0.0404	0.0581	0.0279	0.0549	0.0466	0.0632	0.0503	0.043		0.0492	0.0592	0.0552	0.064	0.0484	0.0591	0.0428	0.0519

— the supplement of paper PMC12217912
